From article PMC7806596, “Regulation of trehalase activity by multi-site phosphorylation and 14-3-3 interaction” (Scientific Reports, 2021) come the findings set out here.

Amino acid sequences for entries named in this document (tags omitted).
UniProt P29311: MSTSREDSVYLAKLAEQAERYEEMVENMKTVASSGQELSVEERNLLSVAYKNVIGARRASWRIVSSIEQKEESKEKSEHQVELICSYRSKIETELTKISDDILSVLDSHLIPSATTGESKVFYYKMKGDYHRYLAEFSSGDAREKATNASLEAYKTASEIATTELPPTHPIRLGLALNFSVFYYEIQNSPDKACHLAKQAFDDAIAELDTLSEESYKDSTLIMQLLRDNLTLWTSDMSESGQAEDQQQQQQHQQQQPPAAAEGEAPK

Assay [1] addresses T1, full-length 3xFLAG-tagged Nth1 (Nth1^WT) (S. cerevisiae) (UniProt P32356).
T1 sequence: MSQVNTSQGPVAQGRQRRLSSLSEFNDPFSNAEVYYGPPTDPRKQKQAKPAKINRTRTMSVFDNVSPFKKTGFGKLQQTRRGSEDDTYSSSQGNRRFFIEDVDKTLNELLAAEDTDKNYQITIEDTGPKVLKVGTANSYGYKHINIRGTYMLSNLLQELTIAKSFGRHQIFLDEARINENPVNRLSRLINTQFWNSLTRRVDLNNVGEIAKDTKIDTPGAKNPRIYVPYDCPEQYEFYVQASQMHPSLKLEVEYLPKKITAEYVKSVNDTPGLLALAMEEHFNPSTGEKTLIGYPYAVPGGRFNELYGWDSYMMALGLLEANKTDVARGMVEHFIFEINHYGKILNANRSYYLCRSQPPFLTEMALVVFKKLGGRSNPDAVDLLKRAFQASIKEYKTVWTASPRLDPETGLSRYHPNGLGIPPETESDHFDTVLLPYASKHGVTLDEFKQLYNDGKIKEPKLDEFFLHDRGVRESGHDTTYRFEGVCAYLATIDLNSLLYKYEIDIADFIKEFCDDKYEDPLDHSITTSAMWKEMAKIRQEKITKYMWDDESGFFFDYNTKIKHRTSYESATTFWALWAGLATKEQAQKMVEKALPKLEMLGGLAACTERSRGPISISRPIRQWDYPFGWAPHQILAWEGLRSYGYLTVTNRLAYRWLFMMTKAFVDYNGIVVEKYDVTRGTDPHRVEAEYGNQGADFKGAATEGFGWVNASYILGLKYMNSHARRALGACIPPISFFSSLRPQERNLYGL
The assay can be described thus: condition: only stationary phase, before glucose replenishment; co-IP; Nth1-3xFLAG precipitated with anti-FLAG M2 magnetic beads, Bmh1-V5 detected by blot; cells in stationary phase, before glucose addition.

Assay [2] concerns the target T1, full-length 3xFLAG-tagged Nth1 (Nth1^WT) (S. cerevisiae). The assay can be described thus: co-IP; Nth1-3xFLAG precipitated with anti-FLAG M2 magnetic beads, Bmh1-V5 detected by blot; stationary phase cells recovered by dilution in 1% glucose minimal medium (5 min after glucose replenishment); 25 mM Tris-HCl pH 7.5, 150 mM NaCl, 5 mM CaCl2, 0.1% Triton X-100, 4 °C, 1 h.

The target of assay [3] is T2, full-length 3xFLAG-tagged Nth1^5A (S. cerevisiae) (UniProt P32356).
T2 sequence: T1 sequence with S20A, S21A, S60A, S66A, S83A
The assay is described as above.

Assay [4] has as its target T1, full-length 3xFLAG-tagged Nth1 (Nth1^WT) (S. cerevisiae). The assay can be described thus: co-IP; Nth1-3xFLAG precipitated with anti-FLAG M2 magnetic beads, Bmh1-V5 detected by blot; cells grown on 1% ethanol minimal medium, arrested in G1 and synchronously released; 25 mM Tris-HCl pH 7.5, 150 mM NaCl, 5 mM CaCl2, 0.1% Triton X-100, 4 °C, 1 h.
Assay [5] deals with T3, full-length 3xFLAG-tagged Nth1^S60A (S. cerevisiae) (UniProt P32356).
T3 sequence: T1 sequence with S60A
The description is as above.

Assay [6] has as its target T4, full-length 3xFLAG-tagged Nth1^S66A (S. cerevisiae) (UniProt P32356).
T4 sequence: T1 sequence with S66A
The description is as above.

Assay [7] has as its target T5, 3xFLAG-tagged Nth1 reporter (95 amino acids long N-terminal regulatory tail) (S. cerevisiae) (UniProt P32356).
T5 sequence: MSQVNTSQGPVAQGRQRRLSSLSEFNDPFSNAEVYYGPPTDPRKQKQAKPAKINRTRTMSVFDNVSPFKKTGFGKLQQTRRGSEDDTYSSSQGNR
The assay can be described thus: co-IP; Nth1 reporter with Bmh1 (Supplementary Fig. S1d); conditions not given.

Substitutions are numbered along the chain they refer to. Results are given in words; binding and its absence hold for the method and conditions named. Binding seen in cells or lysates may run through a third protein. Some results given as binding are weak or reduced against the parent protein; the word gives no strength. Sequences can lack the tags named with a protein.

Turning to “V5-tagged Bmh1 (from UniProt P29311 1-267)”, the binding result is “no binding” in assay [1]; “binds” in assay [2]; “no binding” in assay [3]; “binds” in assay [4]; “binds” in assay [5]; “binds” in assay [6]. Moreover, in assay [7], the binding result is recorded as “no binding”.
